Some of the results follow.
system: T1, Caupolican (Caup) homeodomain DNA-binding domain; assay: PBM E-score (8-mer, recovered from the published 9-mer minima) (E-score (dimensionless, -0.5 to 0.5)); Drosophila protein; higher = stronger relative binding preference, active = 0.31 or more
T1 sequence: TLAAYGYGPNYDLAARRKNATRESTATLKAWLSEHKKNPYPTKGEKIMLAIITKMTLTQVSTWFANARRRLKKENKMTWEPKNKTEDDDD
Outline: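 Caup's homeodomain DNA-binding domain (residues 214-303) was produced by in vitro transcription and translation and applied at 100 nM to custom-designed protein binding microarrays. Each value is an enrichment score giving relative binding preference for a short DNA word; higher means stronger. Published 9-mer scores were the minimum of their two constituent 8-mer scores, and the 8-mer values were recovered from those minima. A cutoff of 0.31 marks candidate binding sequences.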

PBM E-score, ≥ 0.0804:
GATTGAGA

PBM E-score, inactive:
AACGATAC 0.213
CTTAGTCA 0.0123
AAGCTACG -0.0509
GTATTGGA 0.0937
AAGGTTGG 0.0578
CCACTCCG -0.188
AACTTTAT 0.0728
AGACAAAG 0.0575
CAGTAATC 0.0654
ACGATCCA 0.0604
ATAGATCC 0.0212
AGACGAGA 0.0336
CCTCTAAC 0.0582
GGCTAAAA -0.0887
ACTGACAT 0.302
CGAATGAG -0.0787
ATTTTACG 0.0947
AAAAGTGT 0.0517
GGGACGTA -0.0693
ATACGTAT 0.163
ATCGGCGA -0.13
AACGATTA 0.0353
ATAGATTC 0.1
ATGGCACG -0.0348
CAACATGG 0.295
GCTCCCCA -0.196
CTTGGGCA -0.151
GCTCACCA -0.117
TGTAGCAA 0.256
AAGCTTCC -0.133
ATTATGTC 0.227
CTGTAGCC -0.0118
GAGACTGA -0.071
CTAACCTA 0.0604
GAATCGAC -0.0357
GCCCATAA -0.093
CGCTTACA 0.18
AATTACCA 0.184
GAGGTCGC -0.133
CGAGACTC -0.0487
GACCGGGC -0.222
AGTACCGG 0.0483
AGAATACC 0.104
CTAAGTAG 0.117
AACTCATT -0.0317
CATGCATG 0.208
AGTGGCCA -0.0565
TAGTTTAA 0.218
ACCGCCGT -0.106
GCGTAGCA -0.115
ATACGATC 0.11
ACAGCAAT 0.163
GAGCAGCA -0.0274
CCGTTCCC -0.192
AAAGAATC -0.0189
GATCTGCC -0.00773
AGTGTAGC 0.0951
GCCTGCAA -0.129
AAGGGGTG -0.101
ACTTCGAT 0.0903
CGCTACTC -0.0891
GTAGTCAC 0.0427
AGAGCTAG -0.0656
GAAAAGTA 0.113
GTAAATAC 0.132
AGTGAGCG -0.0385
AAGCAAGC 0.00812
GGAGTGCA -0.0923
TTGCGAAA 0.07
AAGTTTCC 0.0498
AATGTGCA 0.193
GAATGAGA -0.0964
AGCATGGG -0.0663
AGGATACG 0.0709
AGAAATAC 0.0797
GGAACATA 0.271
CTAACGGA -0.0298
CGATGTAG 0.179
CTTTCTTC -0.0998
CTGAAACA 0.11
GAGGAGGC -0.235
AGTATTTA 0.223
GCGATGAA -0.0305
AGCTAGTA 0.108
CTTCAAAC -0.0333
GGACCACC -0.0218
GGCCCACA -0.132
CGAGTAAG -0.00379
CACGTGGC -0.0843
CCTGTTTA 0.0657
GACAATCA 0.0975
CTTAAACC 0.00548
ATCCGTAC 0.0556
AGGCGGTC -0.116
CCTCGCGA -0.153
CGATGAAC -0.0351
ACAAGTGG 0.205
CGGGATGC -0.178
CGTGATGC -0.0697
CCGACGGC -0.16
CTTGCGCA -0.0025
GTTACTCA 0.119
AGATCTTA 0.018
GCGCATTA 0.0667
AAAATGAA 0.123
ATCAAGCG -0.0476
CATTTCGC -0.0461
CTTTGCGC -0.0457
CCATTGGA -0.0854
GATGTGTA 0.252
CGACGGAC 0.00364
GCCACATA 0.00811
CGCTTACC -0.0649
GTTTGAAA 0.0278
ACAATGTG 0.243
CACCACCA -0.0462
AAATGCGG -0.0652
CCTTAACG -0.15
CAATACCG -0.0912
CGTGAGCA -0.09
GACAGTGC 0.00178
ACTTCTCA 0.00621
AGTGCGTA 0.0147
ACCACGTA 0.0381
GAAGGATC -0.103
CGAGGAAG -0.171
GGACAGAC 0.0679
CGCGACAC 0.113
ATTTTACC 0.113
CGCTTCCA -0.152
GTTTGGAA 0.035
GGAGCGCA -0.327
CAAGTTAC 0.136
CCTTTCAG -0.106
CCTTATGA 0.0333
AGCTTGAA -0.0641
GAACTAAA 0.069
TCAGACCA -0.0205
ACCATTTG 0.112
AAGATTTC -0.0132
ATCATCTG 0.0263
GAGGCGTA -0.0868
CGTGCTAG -0.0186
AGTAGCTG 0.017
GCGATTAA -0.0449
CGTGTCAA 0.282
CAGTCCCG -0.159
AACCTACT 0.0376
CTCGGAGC -0.149
ACCCAGAG -0.14
CCCGCCAG -0.179
CTACGACA 0.127
CGTTAGGC -0.153
CAAAAAGA 0.00622
TAGTCTCA 0.0309
AAGGGTGC -0.0701
ACCCCACA -0.106
CATTTCCG 0.0434
TCAAGGGA 0.0242
AGGCGCGA -0.139
ATCAACCC 0.0786
GCTTCCCC -0.198
GTCACTAA 0.0933
ATTACCGC 0.0253
GGCCTCGA -0.142
CCTGGCAA -0.121
ACTGCGAT -0.0547
AGACCGCA -0.066
AATGTTAA 0.291
CAAGCAAG 0.00743
CACCGACC -0.0745
TTGCAAAA 0.0136
AATGTCTA 0.242
GGAGATCC -0.103
GACCCGTC -0.251
CGGGGGGA -0.365
AGGGCTGG -0.137
CTAAGTTC -0.148
AGAGTTCA -0.0412
CATTTGGA 0.11
ATACTATG 0.129
ACCCATTC -0.0449
GGGGGCCA -0.372
ATTACTAA 0.125
CGTGCAGC -0.106
CATGATTC 0.127
GTCAGAAA 0.077
ACACAACC 0.228
AATAAAAC 0.14
GGCAAGTA 0.101
ATAATGGA 0.0921
TTACTAAA 0.124
CCTAGGCG -0.205
CGAAGTGC -0.0344
GTATTCCA 0.0333
CAACGTTA 0.0879
GACGGGGC -0.27
AATTCACA 0.162
AATAAGCG -0.00945
CCCGTAGC -0.284
CTACACAC 0.175
AAGCTTCG -0.0601
ACCCGGTC -0.152
ACTTATTC 0.0962
CATAATCA 0.18
CCTCTCTC -0.164
ACTGATGC 0.00816
AGTGTCTG 0.0803
CCGGCTTC -0.242

PBM E-score, ≥ 0.00587:
CTAGAGGA

PBM E-score, ≥ -0.0187:
ACCCTGCA

PBM E-score, ≥ 0.0356:
AGCTCCAA

PBM E-score, ≥ -0.00984:
ATAGGCGG

PBM E-score, ≥ -0.0697:
GGGCAGGA

PBM E-score, active:
TAATAACA 0.319
GCCATGTA 0.346
AACACGGT 0.351
ACATGCAA 0.323
ACATGCGT 0.346
AACATATA 0.323
ACATGCTG 0.332

PBM E-score, ≥ 0.202:
AACTATAT

PBM E-score, ≥ -0.0595:
AGCTAGCT
